From US20110160594A1 (priority 2008, published 2011)

tested on: Megoura viciae; assay: FT-IR spectra of treated vetch aphids, hierarchical clustering (Ward's algorithm) for mode of action; settings: aphids on sprayed broad bean leaf disks, 0.3 ppm to 2500 ppm, 24-48 hours; with only a few exceptions
Procedure: Each well of a 12-well microtiterplate (supplier: TPP, wells: φ 22.2 mm) was filled with 1.4 ml of 0.8% Agar-Agar containing 2.5 ppm of the fungicide Opus to avoid fungal infections of the Agar-Agar.
After cooling a 20 mm broad bean (viciae faba) leaf disk was placed on the agar (bottom side up).
Ultrasonic-spraying with concentrations between 0.3 ppm and 2500 ppm of the corresponding substances was used to treat the leaf discs. The standard volume application rate was 20 μl with different concentrations of substances dissolved in a 1:1 acetone/water mixture.
For the negative controls leaf discs were treated with a 1:1 acetone/water mixture.
The sprayed microtiterplates were either stored under a fume hood for a quick dry (app. 2-4 hours) or overnight in a climatized test chamber at 23±1° C., 50±5% RH and 3500±500 lux of fluorescent bulb light (app. 12 hours).
After the drying of the leaf disks approx. 30 aphids (Megoura viciae) were placed on each leaf disk.
The top side of the microtiterplates was covered by cellulose and the associated lids. In order to prevent the wells from too much moisture each lid had twelve 4 mm-holes drilled centric atop the wells.
The treated microtiterplates were incubated for 24-48 hours in a climatized test chamber at 23±1° C., 50±5% RH and 3500±500 lux of fluorescent bulb light.
Insects were collected using a home-made teflon-block with 12 millcutted funnels. On the bottom of each funnel a collection mictrotube was mounted by means of a small piece of silicon tube. The whole block (=aphid collection device, ACD) was then attached to the microplate (see FIG. 2). The ensemble was flipped and aphids were transferred into the collection tubes. The tubes were closed with perforated caps, placed in a holder fabricated from brass (FIG. 3), cooled down in liquid nitrogen and freeze-dried for one day (Freeze Dryer Christ ALPHA 2-4 approx. 0.024 mbar). A steel ball was added to each tube. After closing the tubes (this time using an intact cap) the aphids were ground for 2 min with 25 Hz in a bead mill (TissueLyser from Qiagen) processing up to 96 tubes in parallel. The resulting powder was resuspended in the microtubes after the addition of 300 μl Baker water.
10 μl from the suspension above were transferred to a measuring position of a silicon 96-“well”plate (instead of the whole suspension it was also possible to use only the supernatant as sample for the IR measurements). By means of the pipette tip the samples were distributed within the whole area of the corresponding imprinted ring. Each sample was such applied to seven different positions, 12-13 samples could be processed on one single plate (see FIG. 5). The silicon plate was dried at 60° C. for 60 minutes, equilibrated to room temperature for 5 minutes and immediately subjected to measurement.
The infrared spectra were recorded in transmission on a Bruker TENSOR 27 FT-IR spectrometer with an attached high throughput screening extension HTS-XT. The spectrometer was controlled by the OPUS software package from BrukerOptics. The following parameters were used to record the FT-IR spectra: spectroscopic region: 4000-400 cm^−1, resolution 8 cm^−1, 16 scans per well, aperture 6 mm, mirror speed 10 kHz.
With the IR spectra a simple hierarchical clustering using Ward's algorithm was performed. […] The treated samples were again split up mainly into three groups.

| Structure (SMILES) | group of the dendrogram of IR spectra (FIG. 6) the treated samples fall into |
| --- | --- |
| CC1(C)C(C=C(Cl)Cl)C1C(=O)OC(C#N)c1cccc(Oc2ccccc2)c1 (stereo not shown) [cypermethrin] | group b), including most of the sodium channel modulators |
| O=[N+]([O-])NC1=NCCN1Cc1ccc(Cl)nc1 [imidacloprid] | group a), comprising the compounds acting on the nicotinic acetylcholine receptor |
| N#Cc1nn(-c2c(Cl)cc(C(F)(F)F)cc2Cl)c(N)c1[S+]([O-])C(F)(F)F (stereo not shown) [fipronil] | group c), representing mainly the GABA-gated chloride channel antagonists |
| CC1(C)C(C=C(Cl)Cl)C1C(=O)OCc1cccc(Oc2ccccc2)c1 (stereo not shown) [permethrin] | group b), including most of the sodium channel modulators |
| CN1COCN(Cc2cnc(Cl)s2)/C1=N\[N+](=O)[O-] [thiamethoxam] | group a), comprising the compounds acting on the nicotinic acetylcholine receptor |
| N#C/N=C1\SCCN1Cc1ccc(Cl)nc1 [thiacloprid] | group a), comprising the compounds acting on the nicotinic acetylcholine receptor |
| CC1(C)[C@H](C(=O)O[C@H](C#N)c2cccc(Oc3ccccc3)c2)[C@@H]1C=C(Br)Br [deltamethrin] | group b), including most of the sodium channel modulators |
| Cc1c(COC(=O)[C@@H]2[C@H](/C=C(\Cl)C(F)(F)F)C2(C)C)cccc1-c1ccccc1 (racemic) [bifenthrin] | group b), including most of the sodium channel modulators |
| C/C(=N\C#N)N(C)Cc1ccc(Cl)nc1 [acetamiprid] | group a), comprising the compounds acting on the nicotinic acetylcholine receptor |

tested on: Lemna paucicostata; assay: Lemna test: FT-IR spectra of treated whole plants, hierarchical clustering (Ward's algorithm) for mode of action; settings: 10^-5 M and 10^-6 M, 48 hours of treatment
Procedure: For the Lemna test, stock cultures of Lemna paucicostata (L.) Hegelm. (collection Prof. R. Kandeler, University of Vienna, Austria) were propagated mixotrophically in an inorganic medium containing sucrose (K. Grossmann, Pest Management Science 61: 423-431, 2005). The bioassay was conducted under aseptic conditions in plastic Petri dishes (5 cm in diameter, six replicates) which contained 15 ml medium without sucrose. The test compounds were added to the dishes in acetone solution at concentrations of 10^−5M and 10^−6M, and the organic solvent allowed to volatize before loading them with ca. 120 fronds each.
The following compounds were applied: Topramezone (inhibitor of carotenoid synthesis), picolinafen (inhibitor of carotenoid synthesis), diuron (inhibitor of photosystem II), and chlorsulfuron (inhibitor of acetolactate synthase). Controls received corresponding amounts of acetone alone.
The culture dishes were then closed with plastic lids and incubated under continuous light (Philips T L white neon tubes, 40 μmol m^−2 s^−1 photon irradiance, 400 to 750 nm) in a growth chamber at 25° C. After 48 hours of treatment with cornpounds, plants from three replicate dishes were sampled (200 mg total fresh weight) in microtubes. The microtubes were placed in a holder fabricated from brass (compare FIG. 3) and freeze-dried. After the additions of one steel ball to each tube the lemna were ground in a bead mill processing 96 tubes in parallel. The resulting powder was resuspended in water and transferred to a 96-“well” silicon plate. After drying of the plate the FT-IR spectra were recorded.

| Structure (SMILES) | assignment of spectral changes in the dendrogram of IR spectra (FIG. 7) |
| --- | --- |
| Cc1c(C(=O)c2cnn(C)c2O)ccc(S(C)(=O)=O)c1C1=NOCC1 [topramezone, Topramezone] | assigned spectral changes induced by the carotenoid synthesis inhibitor topramezone to those of picolinafen |
| O=C(Nc1ccc(F)cc1)c1cccc(Oc2cccc(C(F)(F)F)c2)n1 [picolinafen] | assigned spectral changes induced by the carotenoid synthesis inhibitor topramezone to those of picolinafen |
| COc1nc(C)nc(NC(=O)NS(=O)(=O)c2ccccc2Cl)n1 [chlorsulfuron] | clear separation of spectral changes by the carotenoid synthesis inhibitors to those induced by compounds with different mode of action |
| CN(C)C(=O)Nc1ccc(Cl)c(Cl)c1 [diuron] | clear separation of spectral changes by the carotenoid synthesis inhibitors to those induced by compounds with different mode of action |
